Measurements: PubChem BioAssay AID1030 (National Center for Advancing Translational Sciences (NCATS), 2008)
Several values for one entry are separate records, joined by “and”; a condition that tells them apart may be missing. Identical values can stand only once. Screen size: about 220,000 compounds; about 16,000 (7.3%) were called active. Inconclusive results, whose numbers are uncertain, are shown with a selection of clear calls. The call rests on the fitted dose curve; in most records, active means well fitted inhibition curve with a large enough effect (not every such curve was filed as active); inconclusive means small, poorly fitted or top-dose-only effect, or another doubt; inactive means no such curve, though single readings can be large or run the other way. A potency beside an inconclusive call is a rough fit, not a confirmed value.

target: Aldehyde dehydrogenase 1A1 (Homo sapiens) (UniProt P00352); assay: qHTS Assay for Inhibitors of Aldehyde Dehydrogenase 1 (ALDH1A1); details: Purified ALDH1A1, NADH fluorescence, propionaldehyde substrate; series mostly up to 75.3 µM
Potency means the concentration at half of the fitted maximal effect; tags describe the fitted curve by direction and shape.

UniProt P00352, sequence (P00352 whole entry, looked up): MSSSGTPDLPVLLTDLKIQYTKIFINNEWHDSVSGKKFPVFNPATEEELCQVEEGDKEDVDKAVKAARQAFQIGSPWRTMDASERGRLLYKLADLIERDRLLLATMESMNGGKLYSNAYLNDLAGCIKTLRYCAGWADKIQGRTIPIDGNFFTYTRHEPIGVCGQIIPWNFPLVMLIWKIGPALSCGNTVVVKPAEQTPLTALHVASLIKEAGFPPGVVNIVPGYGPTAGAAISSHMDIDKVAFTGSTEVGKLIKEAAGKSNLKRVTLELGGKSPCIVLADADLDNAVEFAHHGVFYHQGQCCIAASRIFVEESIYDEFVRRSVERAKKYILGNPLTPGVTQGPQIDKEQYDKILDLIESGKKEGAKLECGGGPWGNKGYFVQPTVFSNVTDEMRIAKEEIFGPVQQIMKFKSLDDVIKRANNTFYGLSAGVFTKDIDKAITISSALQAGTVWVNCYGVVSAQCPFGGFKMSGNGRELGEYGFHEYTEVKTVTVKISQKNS

SMILES	Potency
Cc1cc(C(=O)Nc2nc3c(s2)CCCC3)cs1	inconclusive: 31.6 µM [inhibitor, single point]
Cc1ccc(S(=O)(=O)NC2c3cccc4cccc(c34)C2Sc2nc(C)cc(C)n2)cc1 (stereo unspecified)	inconclusive: 22.4 µM [inhibitor, partial curve, poor fit]
CC(=O)Nc1ccc(S(=O)(=O)N(CC(=O)O)Cc2ccccc2)cc1	inactive
CC(C)(C)n1nc2c(c1NC(=O)COc1ccc3ccccc3c1)CS(=O)C2 (stereo unspecified)	inconclusive: 31.6 µM [inhibitor, single point]
Cc1ccc(NC(=O)Cn2ccsc2=N)c([N+](=O)[O-])c1	active: 7.08 µM
CC(C)NC[C@@H](O)COc1ccc(COCCOC(C)C)cc1	inactive
Cc1cc(NC(=O)CSc2nnc(-c3ccco3)n2Cc2ccccc2)no1	inconclusive: 20 µM [inhibitor, partial curve]
COc1ccc(OCc2ccc(-c3nc4ccccc4c(=O)n3N)o2)cc1	inactive
Cc1ccnc2c(N3C(=O)C4C5c6ccccc6C(c6ccccc65)C4C3=O)cccc12 (stereo unspecified)	inconclusive: 4.47 µM [inhibitor, full curve]
Cc1nn2c(-c3ccncc3)ccnc2c1Br	inactive
Cc1ccc(N2CCN(c3ccc(NCc4nc5ccccc5n4C)cc3)CC2)cc1	inconclusive: 39.8 µM [inhibitor, single point]
COc1cccc(Cn2c(=O)c(-c3ccc(F)cc3)nc3cnc(N(C)C)nc32)c1	inconclusive: 12.6 µM [inhibitor, partial curve]
CCOC(=O)c1cnc(SC2CC(=O)N(c3cccc(OC)c3)C2=O)nc1N (stereo unspecified)	inactive
O=C(CSCc1ccccc1)NNC(=S)Nc1cccc(Cl)c1Cl	active: 3.55 µM
CCN(CC)CCCN1C=C2C(=O)C(C)(OC(=O)C3CCCC3)C(=O)C(c3ccccc3)=C2C=C1CCCC(=O)OC (stereo unspecified)	inconclusive: 3.55 µM [inhibitor, partial curve]
CC1(C)Cc2c(sc3nnn(Cc4ccccc4)c(=O)c23)CO1	inconclusive: 39.8 µM [inhibitor, single point]
CC1=NOC(=O)/C1=C\c1ccc2c(c1)OCO2	active: 12.6 µM
Cc1ccc(S(=O)(=O)C(C#N)c2nc3ccccc3nc2N2CCC(C)CC2)cc1 (stereo unspecified)	inconclusive: 10 µM [inhibitor, partial curve]
CCOC(=O)c1cnn2c(C)cc(-c3ccc(F)cc3)nc12	inconclusive: 35.5 µM [inhibitor, single point]
O=C1CC(C(=O)Nc2ccc(O)c(C(=O)O)c2)C(c2ccccc2)O1 (stereo unspecified)	inconclusive: 22.4 µM [inhibitor, partial curve]
CC1=N/C(=C\c2ccc([N+](=O)[O-])cc2)C(=O)N1c1ccc(Cl)cc1	inconclusive: 39.8 µM [inhibitor, single point]
O=C(Nc1nccs1)c1ccc(-c2ccc([N+](=O)[O-])cc2)o1	active: 22.4 µM
COc1ccc2ccccc2c1CN1CCN(C(=O)c2ccccc2)CC1	inconclusive: 35.5 µM [inhibitor, single point]
COc1ccc(-c2nn(-c3ccccc3)cc2N)cc1	inconclusive: 31.6 µM [inhibitor, partial curve]

SMILES	Potency
O=C1CC(N2CCC(c3nc4ccccc4[nH]3)CC2)C(=O)N1Cc1ccccc1 (stereo unspecified)	inconclusive: 39.8 µM [inhibitor, single point]
CCOc1ccccc1Oc1c(C)oc2cc(OC(=O)N3CCOCC3)ccc2c1=O	inactive
CCCN(CCC)CC(=O)Nc1cccc2c1OCO2	inactive
COC(=O)c1[nH]c2ccc(C)cc2c1NS(=O)(=O)c1ccc(F)cc1	inconclusive: 39.8 µM [inhibitor, single point]
CCN(c1ccccc1)S(=O)(=O)c1cc(C(=O)Nc2ccc(F)c(F)c2)ccc1F	inactive
O=C(O)C1C2C=CC(O2)C1C(=O)Nc1ccc(S(=O)(=O)Nc2ccccc2)cc1 (stereo unspecified)	active: 1.12 µM
COc1ccc(-c2nc3cc(C)ccn3c2NCc2ccc3c(c2)OCO3)cc1	inconclusive: 22.4 µM [inhibitor, partial curve]
FC(F)(F)c1ccc(N=Cc2sc(N3CCOCC3)nc2-c2ccccc2)cc1	inconclusive: 12.6 µM [inhibitor, partial curve]
O=C1OCCN1C(=O)[C@H]1[C@H](c2ccc(Cl)cc2)C(c2cccc(Cl)c2)=NN1c1ccccc1	inconclusive: 10 µM [inhibitor, partial curve] and inconclusive: 31.6 µM [inhibitor, partial curve]
CCNc1nc(NC(C)C)nc(SCCOC(=O)c2ccccc2)n1	inconclusive: 35.5 µM [inhibitor, single point]
O=C(Cc1c(O)c2ccccc2[nH]c1=O)N(Cc1ccccc1)Cc1ccccc1	inconclusive: 25.1 µM [inhibitor, partial curve]
Cc1cccc(Cn2c(=O)c3c(nc4n3CCCN4Cc3ccccc3)n(C)c2=O)c1	inconclusive: 20 µM [inhibitor, partial curve]
O=C(/C=C/c1ccccc1)NNc1ccc(Cl)cc1	inconclusive: 25.1 µM [inhibitor, single point]
O=C(Nc1ccc2c(c1)OCO2)C1CCN(C(=O)c2ccc(Br)cc2)CC1	inconclusive: 39.8 µM [inhibitor, single point]
COc1ccc2c(c1)c1nc3ccccc3nc1n2Cc1ccc(OC)c(OC)c1	inactive
CC1=CC(C)(C)N(S(=O)(=O)c2ccc(F)cc2)c2ccccc21	inactive
COc1ccc(NC(=O)CSc2nnc(-c3ccccc3Cl)n2Cc2ccco2)c(OC)c1	active: 14.1 µM
CCOC(=O)Nc1ccc2ncn(C)c(=O)c2c1	inconclusive: 25.1 µM [inhibitor, partial curve]
Cn1ccnc1Sc1ccc(C(N)=O)cc1[N+](=O)[O-]	inactive
C/C(=N\NC(=O)C1COc2ccccc2O1)c1ccc(N2CCOCC2)cc1 (stereo unspecified)	inconclusive: 39.8 µM [inhibitor, single point]
CN1CCN(C(=S)NC(=O)/C=C/c2ccccc2Cl)CC1	inconclusive: 39.8 µM [inhibitor, single point]
CC(C)CCn1c(Oc2ccccc2Cl)nc2c1c(=O)n(C)c(=O)n2C	inconclusive: 12.6 µM [inhibitor, partial curve]
CC(C)C(c1nnnn1Cc1ccccc1)N1CCN(Cc2ccco2)CC1 (stereo unspecified)	inconclusive: 39.8 µM [inhibitor, single point]
Cc1nc(C)c(N)c(=O)[nH]1	inconclusive: 39.8 µM [inhibitor, single point]

SMILES	Potency
CCOC(=O)/C(C#N)=C1/C(=O)N(Cc2ccccc2)c2ccccc21	active: 0.112 µM
O=C(CSc1nnc2ccc(-c3ccc(F)cc3)nn12)N1CCCC1	inactive
O=C(NCCc1ccccc1)c1nc2nc(-c3cccs3)cc(C(F)(F)F)n2n1	inconclusive: 10 µM [inhibitor, partial curve]
Cc1cc(/C=N/NC(=O)c2ccc(CN3CCOCC3)cc2)c(C)n1-c1ccccc1	inconclusive: 28.2 µM [inhibitor, single point]
CSCCC(NS(=O)(=O)c1ccc(Cl)cc1)C(=O)OCC(=O)N(C(C)C)C(C)C (stereo unspecified)	inconclusive: 31.6 µM [inhibitor, single point]
Oc1ccccc1C(=S)N1CCCCC1	inconclusive: 31.6 µM [inhibitor, single point]
Cc1ccc(NC(=O)CSCC(=O)Nc2ncc3c(n2)CC(c2ccco2)CC3=O)cc1 (stereo unspecified)	active: 3.98 µM
NC(=O)c1ccccc1NC(=O)Nc1cccc(Cl)c1Cl	inconclusive: 39.8 µM [inhibitor, single point]
O=C(O)CC(NC(=S)NCc1ccccc1)C(=O)O (stereo unspecified)	inactive
COc1ccc(NC(=O)c2cc3c(=O)n4ccccc4nc3n2C)c(OC)c1	inconclusive: 17.8 µM [inhibitor, partial curve]
OC(COCCC12CC3CC(CC(C3)C1)C2)CN1CCCCC1 (stereo unspecified)	active: 20 µM
Cc1ccsc1C(=O)N1CCCC(CCC(=O)N2CCN(c3ccccn3)CC2)C1 (stereo unspecified)	inconclusive: 28.2 µM [inhibitor, single point]
CNC(=O)CC1C(=O)N(C)C(=S)N1NC(=O)c1ccc(Cl)cc1 (stereo unspecified)	inactive
CC(=O)Nc1cc(OC(C)=O)c2nonc2c1OC(C)=O	inactive
O=C(NCCNS(=O)(=O)c1ccccc1Cl)c1cc(OCC(F)(F)F)ccc1OCC(F)(F)F	inconclusive: 22.4 µM [inhibitor, partial curve]
Cc1ccc(CCC(=O)Nc2nccs2)o1	inconclusive: 31.6 µM [inhibitor, single point]
O=C(COc1ccccc1)NC(=S)Nc1cccc([N+](=O)[O-])c1	inconclusive: 37.7 µM [inhibitor, single point]
CCC1(C)Cc2ccccc2-c2nc(NCCO)[nH]c(=O)c21 (stereo unspecified)	inconclusive: 28.2 µM [inhibitor, partial curve]
Cc1ccccc1NC(=O)CSc1ccc(-c2ccco2)nn1	inconclusive: 25.1 µM [inhibitor, single point]
Cc1cc(C)cc(C(=O)OCC(=O)NCc2cccs2)c1	inactive
CSc1nc(N(C)NC(=O)c2cccc(C)c2)c2ccccc2n1	inactive
CC1c2nc3ccccc3n2C(CC(=O)NC2CC2)C(=O)N1Cc1ccccc1 (stereo unspecified)	inactive
CS(=O)(=O)Nc1cccc(-c2ccc3ncnc(Nc4ccccc4)c3c2)c1	inactive
